The supplement of paper PMC12217912
The list shows a part of the results. The full chains were built here from the parent and the listed change. Values near 0.05 are background.

B1: TEV protease; numbered along this chain (parent)
chain: MGESLFKGPRDYNPISSSICHLTNESDGHTTSLYGIGFGPFIITNKHLFRRNNGTLVVQSLHGVFKVKDTTTLQQHLVDGRDMIIIRMPKDFPPFPQKLKFREPQREERICLVTTNFQTKSMSSMVSDTSCTFPSGDGIFWKHWIQTKDGQCGSPLVSTRDGFIVGIHSASNFTNTNNYFTSVPKNFMELLTNQEAQQWVSGWRLNADSVLWGGHKVFMVKPEEPFQPVKEATQL

Variants of: B1
Assay: raw area under fraction-flipped curve 0-4 h after induction (AUC4h, not background-subtracted), DNA-recorder readout of cleavage of the substrate (dimensionless); higher = more cleavage of the substrate by the protease variant
Conditions: temperature: 34 °C; time window: 0-4 h after rhamnose induction
Description: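 In vivo DNA recorder in E. coli TOP10(DE3) ΔrhaA at 34 °C. Each TEVp single-site mutant (parent TEVp 0) is paired with a single-site variant of the 7-mer TEVs (canonical ENLYFQ|S). The substrate sits between flexible linkers in a Bxb1-sfGFP-TEVs-SsrA fusion, so cleavage stabilises Bxb1 and speeds flipping of a recombination array, read by NGS. The value is the raw area under the fraction-flipped curve over 0-4 h after rhamnose induction (AUC4h), with ≥20 reads per time point. It is not background-subtracted; inactive controls average about 0.047.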
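Further: Bxb1 expression induced with 0.2% (w/v) L-rhamnose at OD600 near 0.5, cultures sampled hourly, flipped fraction per protease–substrate barcode pair counted by paired-end Illumina sequencing.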

F41C
area with substrate ENLAFQS: 0.0646
area with substrate ENLCFQS: 0.0768
area with substrate ENLEFQS: 0.0711
area with substrate ENLGFQS: 0.0999
area with substrate ENLHFQS: 0.0786
area with substrate ENLIFQS: 0.0831
area with substrate ENLKFQS: 0.119
area with substrate ENLMFQS: 0.0598
area with substrate ENLNFQS: 0.0661
area with substrate ENLPFQS: 0.0317
area with substrate ENLRFQS: 0.0967
area with substrate ENLSFQS: 0.0691
area with substrate ENLWFQS: 0.0791

F41S
area with substrate ENLAFQS: 0.0531
area with substrate ENLCFQS: 0.0675
area with substrate ENLDFQS: 0.057
area with substrate ENLEFQS: 0.0499
area with substrate ENLFFQS: 0.0672
area with substrate ENLGFQS: 0.0502
area with substrate ENLHFQS: 0.0671
area with substrate ENLIFQS: 0.07
area with substrate ENLKFQS: 0.0715
area with substrate ENLMFQS: 0.0321
area with substrate ENLNFQS: 0.0618
area with substrate ENLPFQS: 0.0552
area with substrate ENLQFQS: 0.0655
area with substrate ENLRFQS: 0.0643
area with substrate ENLSFQS: 0.0691
area with substrate ENLWFQS: 0.0684

F41R
area with substrate ENLAFQS: 0.0536
area with substrate ENLCFQS: 0.06
area with substrate ENLDFQS: 0.0505
area with substrate ENLEFQS: 0.0539
area with substrate ENLFFQS: 0.0569
area with substrate ENLHFQS: 0.0476
area with substrate ENLKFQS: 0.0627
area with substrate ENLMFQS: 0.0342
area with substrate ENLNFQS: 0.0479
area with substrate ENLPFQS: 0.0514
area with substrate ENLQFQS: 0.0548
area with substrate ENLSFQS: 0.0679
area with substrate ENLTFQS: 0.0615
area with substrate ENLVFQS: 0.0698
area with substrate ENLWFQS: 0.0376

D27Y
area with substrate ENLAFQS: 0.0612
area with substrate ENLCFQS: 0.074
area with substrate ENLDFQS: 0.0723
area with substrate ENLEFQS: 0.057
area with substrate ENLFFQS: 0.0776
area with substrate ENLGFQS: 0.0606
area with substrate ENLHFQS: 0.0747
area with substrate ENLKFQS: 0.0748
area with substrate ENLNFQS: 0.0647
area with substrate ENLPFQS: 0.0529
area with substrate ENLQFQS: 0.055
area with substrate ENLSFQS: 0.0676
area with substrate ENLWFQS: 0.0688

P93H
area with substrate ENLAFQS: 0.0505
area with substrate ENLDFQS: 0.061
area with substrate ENLHFQS: 0.0668
area with substrate ENLKFQS: 0.0893
area with substrate ENLLFQS: 0.0729
area with substrate ENLPFQS: 0.0558
area with substrate ENLRFQS: 0.0748
area with substrate ENLWFQS: 0.0446

P93Y
area with substrate ENLAFQS: 0.0715
area with substrate ENLCFQS: 0.0535
area with substrate ENLFFQS: 0.102
area with substrate ENLKFQS: 0.0436
area with substrate ENLMFQS: 0.0654
area with substrate ENLPFQS: 0.0637
area with substrate ENLQFQS: 0.0249
area with substrate ENLRFQS: 0.0803

V78T
area with substrate ENLAFQS: 0.065
area with substrate ENLDFQS: 0.0506
area with substrate ENLEFQS: 0.0597
area with substrate ENLFFQS: 0.0646
area with substrate ENLKFQS: 0.0646
area with substrate ENLMFQS: 0.0717
area with substrate ENLNFQS: 0.0636
area with substrate ENLRFQS: 0.0627
area with substrate ENLWFQS: 0.059

V78M
area with substrate ENLAFQS: 0.0559
area with substrate ENLCFQS: 0.0733
area with substrate ENLDFQS: 0.055
area with substrate ENLFFQS: 0.068
area with substrate ENLHFQS: 0.0714
area with substrate ENLIFQS: 0.0688
area with substrate ENLKFQS: 0.0796
area with substrate ENLLFQS: 0.0703
area with substrate ENLMFQS: 0.056
area with substrate ENLNFQS: 0.0691
area with substrate ENLPFQS: 0.034
area with substrate ENLQFQS: 0.0714
area with substrate ENLRFQS: 0.0683
area with substrate ENLSFQS: 0.0564

F49S
area with substrate ENLAFQS: 0.0544
area with substrate ENLCFQS: 0.0533
area with substrate ENLDFQS: 0.0524
area with substrate ENLEFQS: 0.0538
area with substrate ENLFFQS: 0.0592
area with substrate ENLHFQS: 0.0329
area with substrate ENLKFQS: 0.0552
area with substrate ENLMFQS: 0.0637
area with substrate ENLNFQS: 0.0558
area with substrate ENLPFQS: 0.0619
area with substrate ENLQFQS: 0.0494
area with substrate ENLRFQS: 0.0655
area with substrate ENLSFQS: 0.0556
area with substrate ENLTFQS: 0.0497
area with substrate ENLVFQS: 0.0564

F49E
area with substrate ENLAFQS: 0.0512
area with substrate ENLCFQS: 0.0519
area with substrate ENLDFQS: 0.0572
area with substrate ENLEFQS: 0.05
area with substrate ENLFFQS: 0.0576
area with substrate ENLGFQS: 0.0529
area with substrate ENLHFQS: 0.0594
area with substrate ENLIFQS: 0.0633
area with substrate ENLKFQS: 0.0673
area with substrate ENLLFQS: 0.0771
area with substrate ENLNFQS: 0.0537
area with substrate ENLQFQS: 0.0544
area with substrate ENLRFQS: 0.0474
area with substrate ENLSFQS: 0.0392
area with substrate ENLVFQS: 0.059
area with substrate ENLWFQS: 0.0506

Q59T
area with substrate ENLAFQS: 0.0626
area with substrate ENLCFQS: 0.0733
area with substrate ENLHFQS: 0.0645
area with substrate ENLKFQS: 0.0808
area with substrate ENLLFQS: 0.0795
area with substrate ENLNFQS: 0.0686
area with substrate ENLPFQS: 0.0731
area with substrate ENLSFQS: 0.0762

K66T
area with substrate ENLAFQS: 0.0619
area with substrate ENLCFQS: 0.0779
area with substrate ENLDFQS: 0.0513
area with substrate ENLEFQS: 0.0709
area with substrate ENLFFQS: 0.0845
area with substrate ENLGFQS: 0.0673
area with substrate ENLIFQS: 0.0791
area with substrate ENLKFQS: 0.0821
area with substrate ENLNFQS: 0.0727
area with substrate ENLRFQS: 0.0478
area with substrate ENLTFQS: 0.0502
area with substrate ENLWFQS: 0.0685

I42M
area with substrate ENLAFQS: 0.0733
area with substrate ENLCFQS: 0.0814
area with substrate ENLDFQS: 0.0597
area with substrate ENLEFQS: 0.0686
area with substrate ENLFFQS: 0.0863
area with substrate ENLHFQS: 0.0725
area with substrate ENLIFQS: 0.0903
area with substrate ENLKFQS: 0.0719
area with substrate ENLLFQS: 0.0719
area with substrate ENLNFQS: 0.0692
area with substrate ENLRFQS: 0.0691
area with substrate ENLSFQS: 0.0655
area with substrate ENLWFQS: 0.0663

I42T
area with substrate ENLAFQS: 0.0425
area with substrate ENLDFQS: 0.0533
area with substrate ENLEFQS: 0.0439
area with substrate ENLHFQS: 0.0348
area with substrate ENLIFQS: 0.0427
area with substrate ENLKFQS: 0.0622
area with substrate ENLRFQS: 0.022
area with substrate ENLSFQS: 0.0495
